# Out of some 370,000 compounds screened, about 1,100 (0.3%) were called active. Inconclusive results, whose numbers are uncertain, are shown with a selection of clear calls. Calls follow the shape of the dose curve; as a rule, active = well fitted activation curve with a large enough effect; inconclusive = small, poorly fitted or top-dose-only effect; inactive = flat fitted curve, though single readings scatter. Potencies of inconclusive entries are doubtful fits and often do not repeat.
# Target: Relaxin receptor 1 (Homo sapiens) (UniProt Q9HBX9)
# Chain of UniProt Q9HBX9 (Q9HBX9 whole entry, looked up): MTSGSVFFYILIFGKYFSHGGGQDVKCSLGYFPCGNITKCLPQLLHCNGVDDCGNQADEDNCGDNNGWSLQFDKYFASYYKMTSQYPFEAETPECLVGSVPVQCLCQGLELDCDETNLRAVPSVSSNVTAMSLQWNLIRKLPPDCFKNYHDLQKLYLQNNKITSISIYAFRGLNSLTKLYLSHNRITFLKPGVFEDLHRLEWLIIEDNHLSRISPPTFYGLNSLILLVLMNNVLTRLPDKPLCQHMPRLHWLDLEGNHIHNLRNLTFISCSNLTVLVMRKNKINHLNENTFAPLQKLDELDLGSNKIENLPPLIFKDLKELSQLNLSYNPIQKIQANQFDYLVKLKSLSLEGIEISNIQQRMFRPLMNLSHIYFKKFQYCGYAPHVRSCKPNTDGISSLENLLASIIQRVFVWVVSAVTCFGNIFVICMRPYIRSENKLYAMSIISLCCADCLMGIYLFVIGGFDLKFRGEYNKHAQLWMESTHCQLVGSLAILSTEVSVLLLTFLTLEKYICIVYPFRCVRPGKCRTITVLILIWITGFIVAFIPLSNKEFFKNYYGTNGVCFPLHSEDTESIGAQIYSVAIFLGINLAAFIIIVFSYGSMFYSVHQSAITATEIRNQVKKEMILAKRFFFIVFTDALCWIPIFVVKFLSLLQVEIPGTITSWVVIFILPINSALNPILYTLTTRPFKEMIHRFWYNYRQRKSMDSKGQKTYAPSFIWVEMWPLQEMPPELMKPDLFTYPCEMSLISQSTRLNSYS
# Assay: qHTS Assay for Agonists of the Relaxin Receptor RXFP1; also: nearly all actives have a fitted effect of over 60% in size
# Settings: HEK293T-RXFP1 cAMP TR-FRET, 30 min; series mostly up to 57.5 µM
# Method in brief: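 HEK293T cells stably expressing RXFP1 were pretreated with the PDE4 inhibitor Ro 20174, exposed to compounds for 30 min at 37C, lysed, and cAMP was read by TR-FRET. Data normalized to buffer (basal) and 29 nM porcine relaxin (100%).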
# Potency is read from the fitted curve at half-maximal effect; tags tell the direction and shape of the fitted curve.
row,Compound,Potency
1,COc1cccc(C2/C(=C(\O)c3ccc(OC)c(OC)c3)C(=O)C(=O)N2c2cc(C)on2)c1 (stereo unspecified),"inconclusive: 25.1 µM [activator, partial curve]"
2,CCOC(=O)c1[nH]c2ccc(OC)cc2c1NC(=S)N1CCN(C(=O)OCC)CC1,"inconclusive: 39.8 µM [activator, single point]"
3,O=C(Nc1ccnc(-c2ccncc2)n1)C1CC1,"inconclusive: 35.5 µM [activator, single point]"
4,O=C(CCCN1C(=O)c2cccnc2C1=O)Nc1ccc(F)cc1Cl,"inconclusive: 22.4 µM [activator, partial curve]"
5,COc1ccc(C(=O)c2ccc(Br)cc2)cc1,"inconclusive: 31.6 µM [activator, single point]"
6,Cc1ccc(-c2sc(C(=O)Nc3ccc(Br)cc3)cc2CC(=O)O)cc1,"inconclusive: 12.6 µM [activator, partial curve]"
7,O=C(c1cc2c(s1)-c1ccccc1OC2)N1CCN(c2ccccn2)CC1,"inconclusive: 15.8 µM [activator, partial curve]"
8,COc1ccc(SC[C@H](CC(C)C)N2CCN(CCc3ccccc3)CCC2=O)cc1,inactive
9,CCCC(=O)N(C1CC(C)C(C#N)(C#N)C1(C#N)C#N)N(C)C (stereo unspecified),inactive
10,COc1ccc(-n2nc3c(N4CCC(C(=O)NCc5cccc(F)c5)CC4)nnc(C)c3c2C)cc1,"inconclusive: 35.5 µM [activator, single point]"
11,O=C(CSc1nnnn1C1CCCCC1)Nc1ccc(F)cc1,inactive
12,O=C(CSc1nc2ccsc2c(=O)n1Cc1ccc(F)cc1)NCc1ccc(Cl)cc1,"inconclusive: 39.8 µM [activator, single point]"
13,CCS(=O)(=O)c1ccc2oc(Nc3cc(Cl)ccc3OC)nc2c1,"inconclusive: 35.5 µM [activator, single point]"
14,CC(NC(=O)c1ccccc1NC(=O)c1ccco1)C(=O)O (stereo unspecified),inactive
15,COc1cccc(/C=N/NC(=O)c2oc3nc(-c4ccccc4)cc(-c4ccco4)c3c2N)c1,"inconclusive: 39.8 µM [activator, single point]"
16,CN(Cc1ccccc1)c1nc2c(c(=O)[nH]c(=O)n2C)n1CCOc1ccccc1,inactive
17,O=C(CCn1c(=O)c2sccc2n(Cc2ccc(F)cc2)c1=O)NCc1ccc2c(c1)OCO2,inactive
18,Cc1ccc(NC(=O)Cn2cc(C(F)(F)F)cc(Cl)c2=O)cc1Cl,"inconclusive: 31.6 µM [activator, partial curve]"
19,CCOC(=O)C1=C(CN2CCN(c3ccc(Cl)cc3)CC2)NC(=O)NC1c1ccc(OC)cc1 (stereo unspecified),inactive
20,Cn1c(=O)c2c(nc(SCCN3CCOCC3)n2C)n(C)c1=O,"inconclusive: 28.2 µM [activator, partial curve]"
21,COC(=O)c1ccc(CSc2ncnc3c2oc2ccccc23)o1,"inconclusive: 28.2 µM [activator, partial curve]"
22,Cn1c(=O)c2c(nc(Sc3ncnn3CC(=O)NC3CCCCC3)n2C)n(C)c1=O,"inconclusive: 20 µM [activator, partial curve]"
23,COc1ccc(C(=O)/C(C#N)=N/Nc2ccc([N+](=O)[O-])cc2)cc1,inactive
24,O=C(Nc1ccccn1)C(=O)Nc1ccccn1,inactive

row,Compound,Potency
1,Cc1ccc(-n2ncc(Br)c(Br)c2=O)cc1,"inconclusive: 22.4 µM [activator, partial curve]"
2,CCOC(=O)c1sc2ncnc(Nc3cccc(C(=O)O)c3)c2c1C,"inconclusive: 17.8 µM [activator, partial curve]"
3,CCOc1ccc(-c2ccc3nnc(SCC(=O)NCC4CCCO4)n3n2)cc1 (stereo unspecified),"inconclusive: 28.2 µM [activator, partial curve]"
4,CCCCc1c(C)nc2ccccc2c1SCCC(=O)O,"inconclusive: 20 µM [activator, partial curve]"
5,CC(=O)c1c(C)[nH]c(C(=O)Nc2ccc(Cl)c(S(=O)(=O)N(C)C)c2)c1C,"inconclusive: 39.8 µM [activator, single point]"
6,O=C(CSc1nc2ccsc2c(=O)n1-c1ccc(Br)cc1)NCc1ccccc1,"inconclusive: 39.8 µM [activator, single point]"
7,Nc1ncnc2c1ncn2C1OC(COP(=O)(O)O)C(O)C1O (stereo unspecified),"inconclusive: 35.5 µM [activator, partial curve]"
8,COc1ccc(NC(=O)NCCn2nnc3cc(S(=O)(=O)N(C)C)ccc32)cc1,inactive
9,Cc1ccc(NC(=O)C2CCN(S(=O)(=O)c3ccc4c(c3)CCCC(=O)N4)CC2)c(Cl)c1,inactive
10,COc1cccc2c1Oc1ncccc1N(c1ccc(C(=O)NCc3ccccc3C)s1)C2,"inconclusive: 25.1 µM [activator, partial curve]"
11,O=C(NCc1ccccc1Cl)c1ccc2c(c1)nnn2C1CCCC1,"inconclusive: 31.6 µM [activator, single point]"
12,S=c1[nH]nc(-c2cccc(Br)c2)o1,"inconclusive: 22.4 µM [activator, partial curve]"
13,Cc1nnc(NC(=O)CSc2ccc3nnc(-c4ccccn4)n3n2)s1,"inconclusive: 28.2 µM [activator, partial curve]"
14,CCOc1ccc(NC(=O)CN(C)C(=O)c2cn3ccccc3n2)cc1OCC,inactive
15,Cc1ccc(-n2nc3c(N4CCC(C(=O)NCCc5cccs5)CC4)nnc(C)c3c2C)cc1,"inconclusive: 39.8 µM [activator, single point]"
16,O=C(CN1C(=O)/C(=C/c2ccc(C(F)(F)F)cc2)Sc2ccccc21)NCCCN1CCOCC1,inactive
17,Cc1cc(C)cc(OCC(=O)Nc2nonc2-c2ccc(Br)cc2)c1,"inconclusive: 35.5 µM [activator, single point]"
18,COc1ccc(/C=N/Nc2nncc3ccccc23)cc1,inactive
19,CCOc1ccc(C(=O)c2cn(CC(=O)Nc3ccc(OC)cc3)c3cc4c(cc3c2=O)OCO4)cc1,active: 25.1 µM
20,COc1ccc(C2/C(=C(/O)c3ccc4c(c3)CC(C)O4)C(=O)C(=O)N2Cc2cccnc2)cc1 (stereo unspecified),"inconclusive: 25.1 µM [activator, partial curve]"
21,CCS(=O)(=O)c1nc(S(=O)(=O)c2ccc(C)cc2)c(N2CC(C)OC(C)C2)s1 (stereo unspecified),active: 28.2 µM
22,CN(C(=O)NC1CC(=O)N(c2ccc3c(c2)OCCO3)C1)c1ccccc1 (stereo unspecified),inactive
23,Cc1cc(N2C(=O)C(O)=C(C(=O)c3cc4ccccc4o3)C2c2cccc(Br)c2)no1 (stereo unspecified),active: 15.8 µM
24,CC1=NN(C(N)=S)C(=O)C1N=Nc1ccc([N+](=O)[O-])cc1 (stereo unspecified),"inconclusive: 25.1 µM [activator, partial curve]"

row,Compound,Potency
1,CCc1ccc(/C=N/NC(=O)c2c[nH]c3ccccc23)s1,inactive
2,CC(NC(=O)CCNS(=O)(=O)c1ccccc1)c1ccccc1 (stereo unspecified),inactive
3,Cc1ccc(OCC(=O)NCCNC(=O)c2cccnc2)cc1C,"inconclusive: 28.2 µM [activator, partial curve]"
4,CCOc1cccc(Nc2cc3n(c(=O)n2)CCc2cc(OC)c(OC)cc2-3)c1,"inconclusive: 17.8 µM [activator, partial curve]"
5,CCc1cc(=O)oc2cc(OCC(=O)NCCCn3ccnc3)ccc12,inactive
6,COc1ccc(C(=O)Nc2cccc(OCc3cc(=O)n4c5c(sc4n3)CCCC5)c2)cc1OC,"inconclusive: 31.6 µM [activator, single point]"
7,CCc1ccc(NC(=O)Cn2c(=O)n(Cc3ccc(C)cc3)c(=O)c3cccnc32)cc1,"inconclusive: 28.2 µM [activator, partial curve]"
8,COc1cc(NC(=O)CSc2cc(=O)n(C)c3ccccc23)cc(OC)c1OC,"inconclusive: 31.6 µM [activator, single point]"
9,CCOC(=O)c1sc(NC(=O)c2ccco2)nc1-c1ccccc1,"inconclusive: 39.8 µM [activator, single point]"
10,CCOC(=O)c1nc(NCc2ccccc2)sc1C,inactive
11,COC(=O)CNC(=O)CSc1nnc2cc(C)c3ccccc3n12,"inconclusive: 28.2 µM [activator, partial curve]"
12,CCCOc1cccc(C2C(C(=O)c3ccco3)=C(O)C(=O)N2c2nnc(C)s2)c1 (stereo unspecified),"inconclusive: 28.2 µM [activator, partial curve]"
13,CCCCOc1ccc(C(=O)Nn2c(-c3cccs3)nc3ccccc3c2=O)cc1,"inconclusive: 31.6 µM [activator, single point]"
14,Cn1c2ccccc2c2cc(/C=N/NC(=O)c3ccc(O)cc3O)ccc21,inactive
15,O=C(O)CSc1nnc(-c2ccco2)o1,inactive
16,CCOC(=O)c1c(NC(=O)CN2C(=O)NC3(CCCCC3)C2=O)sc(C)c1-c1ccc(C)cc1,inactive
17,COCCCn1c(SCc2cccc(Cl)c2)nc2c(sc3ccccc32)c1=O,"inconclusive: 31.6 µM [activator, single point]"
18,CCOc1ccc(Nc2nc(-c3cccc(Cl)c3)c3c(n2)-c2ccccc2OC3)cc1,inactive
19,COc1ccc2nc(/N=C\N(C)C)sc2c1,inactive
20,CCOC(=O)C(CC)Sc1ccc2nnc(-c3cccnc3)n2n1 (stereo unspecified),active: 17.8 µM
21,CCCn1c2ccccc2c2cnn(CC(=O)Nc3cc(C)c(Cl)cc3OC)c(=O)c21,inactive
22,Cc1ccccc1C(=O)Nc1cc(C)c(O)c(-c2nc3ccccc3o2)c1,"inconclusive: 39.8 µM [activator, single point]"
23,O=C(Cn1c(=S)[nH]c2ccccc2c1=O)NCCc1ccccc1,"inconclusive: 31.6 µM [activator, single point]"
